Results from the supplement of paper PMC3334620.
Whole data set: some 33,000 sequences, median “E-score (-0.5 to 0.5)” near -0.043, cut for the highest 2% near 0.37. Some of the results follow.

Target: T1, Upc2 (UniProt Q12151)
T1 sequence: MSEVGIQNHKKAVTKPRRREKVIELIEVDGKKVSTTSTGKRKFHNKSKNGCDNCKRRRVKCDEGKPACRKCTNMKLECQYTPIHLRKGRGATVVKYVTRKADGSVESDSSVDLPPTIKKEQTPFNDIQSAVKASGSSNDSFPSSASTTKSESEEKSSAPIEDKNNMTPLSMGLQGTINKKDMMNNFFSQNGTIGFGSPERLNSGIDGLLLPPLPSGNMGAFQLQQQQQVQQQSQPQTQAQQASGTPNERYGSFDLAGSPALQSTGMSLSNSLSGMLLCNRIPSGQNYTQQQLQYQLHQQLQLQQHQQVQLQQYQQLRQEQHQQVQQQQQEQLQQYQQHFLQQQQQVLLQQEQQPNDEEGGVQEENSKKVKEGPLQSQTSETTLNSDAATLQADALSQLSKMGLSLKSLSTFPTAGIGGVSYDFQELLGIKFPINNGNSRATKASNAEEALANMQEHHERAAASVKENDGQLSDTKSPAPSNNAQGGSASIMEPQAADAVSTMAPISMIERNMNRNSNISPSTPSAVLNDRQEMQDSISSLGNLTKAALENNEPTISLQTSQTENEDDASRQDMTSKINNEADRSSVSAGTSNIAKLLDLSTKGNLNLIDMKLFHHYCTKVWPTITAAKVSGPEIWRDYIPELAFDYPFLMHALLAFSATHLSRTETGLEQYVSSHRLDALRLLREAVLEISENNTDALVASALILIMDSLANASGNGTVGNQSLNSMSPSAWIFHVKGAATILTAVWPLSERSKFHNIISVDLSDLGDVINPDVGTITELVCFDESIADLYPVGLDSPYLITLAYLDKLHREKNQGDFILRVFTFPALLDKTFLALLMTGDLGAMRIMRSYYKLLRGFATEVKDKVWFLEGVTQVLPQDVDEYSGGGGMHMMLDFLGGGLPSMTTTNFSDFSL
Test: PBM E-score (8-mer binding enrichment) (E-score (-0.5 to 0.5)); higher = stronger / more preferred TF binding; most listed sequences are background and not binding sites
Conditions: protein concentration: 200 nM; construct: GST-full length
Procedure, shortened: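 GST-tagged yeast TFs (full-length or DNA-binding domain) were made by PURExpress in vitro transcription/translation and applied at about 100-200 nM to universal all-10-mer Agilent arrays. The arrays were made double-stranded by primer extension, on fresh or once-stripped slides. Bound protein was detected with fluorescent anti-GST, and scans were normalised with masliner. Each ungapped eight-base word, pooled with its reverse complement, received an E-score (modified Wilcoxon-Mann-Whitney statistic) from the Universal PBM Analysis Suite.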

Row | Sequence | PBM E-score
1 | AGAGCAGA | -0.0123
2 | ATATGTAC | 0.147
3 | CGCGCACC | 0.0323
4 | CCTGAATA | 0.088
5 | CACACAGC | -0.105
6 | AATATTGC | 0.24
7 | AATGACGA | -0.0382
8 | AGCGCTCA | 0.0243
9 | CCTTGTCA | -0.199
10 | AAATGTGA | -0.0378
11 | AGATACTG | -0.033
12 | ACTCTCAC | -0.136
13 | CATAATAA | 0.128
14 | AATTGCGT | 0.117
15 | CCAAATGA | 0.109
16 | GCAGTCAA | -0.123
17 | AGCTGGGC | -0.21
18 | AGCGGAAT | -0.0346
19 | CGAACGCC | 0.0792
20 | GATCATTA | 0.0302
21 | ACACGGTC | -0.099
22 | AGTTACAG | -0.052
23 | CACGATAG | -0.187
24 | AATATTTA | 0.16
25 | ATGCACTG | -0.118

Row | Sequence | PBM E-score
26 | AAATTCGA | -0.128
27 | GGCATTGA | -0.0844
28 | AGATCGAC | 0.0551
29 | TCCACACA | -0.073
30 | CTAAAAAG | -0.104
31 | CAGTGTCG | -0.012
32 | GCCAAGGC | -0.232
33 | AGAACAAT | -0.00179
34 | CGTATAGC | 0.483
35 | ATTGGGAG | -0.172
36 | ACCAAAGA | -0.0336
37 | TAGCAATA | 0.161
38 | CACTACTC | -0.101
39 | CCAACACC | -0.278
40 | AAAGTGTG | -0.187
41 | AAAACTCC | -0.112
42 | GTCGTAAA | 0.477
43 | ATTCCCGC | -0.0396
44 | CCCGCTGA | -0.275
45 | CCCTATTC | -0.046
46 | AGGAGCCG | -0.224
47 | AGAGAACA | -0.0853
48 | ACATAGCC | -0.329
49 | AACTATTC | 0.0109
50 | ACTCCACC | -0.147

Row | Sequence | PBM E-score
51 | GGTGGTCA | -0.188
52 | TGTGGAAA | -0.0664
53 | ATCTTTTC | -0.0144
54 | AGGCAGAG | -0.131
55 | AAGCCCTA | -0.0838
56 | CTTAACAC | -0.0502
57 | CCCTGCAA | -0.0508
58 | ACGGGAGT | 0.175
59 | CACCTCGC | 0.0282
60 | AGTTATTG | -0.102
61 | CAAGCGTA | 0.266
62 | GTTATCGA | 0.0519
63 | ACTTAAAA | 0.0711
64 | ATGCGCGC | -0.00398
65 | ACGGTTGC | 0.0783
66 | AAGGGGCC | -0.169
67 | CTGGCCAA | -0.163
68 | CGGCTATC | 0.0416
69 | CACATTCC | -0.127
70 | CCCATAGG | -0.0777
71 | GTATCAAA | 0.159
72 | CCTTGGCA | -0.286
73 | ATTCCCGG | -0.0911
74 | AGGTAGAG | -0.186
75 | CGGCAGTA | -0.062

Row | Sequence | PBM E-score
76 | ACAGCGAC | 0.0109
77 | AAGCTTGC | -0.137
78 | GGACGCTA | -0.14
79 | ACCGCGAC | -0.056
80 | CCGTAGAA | 0.118
81 | GGCCCATA | -0.135
82 | TTAAGAAA | 0.0858
83 | AAAAATAA | 0.0718
84 | CACGTGGG | -0.0926
85 | AGAAAATA | -0.016
86 | CCCGGTCC | -0.168
87 | GCTCAAGC | 0.041
88 | AAATCTTC | -0.014
89 | GAATTCCA | -0.0846
90 | ACCTGCCT | -0.13
91 | CTAGATAG | -0.0499
92 | ATACGGAA | 0.372
93 | CCGATCGA | 0.0772
94 | AGTCACGC | -0.155
95 | TCCCAGGA | -0.18
96 | GATAGAAA | 0.0471
97 | TGGCCCCA | -0.258
98 | ACTTGGGC | -0.355
99 | CCTAAGAG | -0.0375
100 | AGAGAACC | -0.188

Row | Sequence | PBM E-score
101 | AACCCCCT | -0.343
102 | CGTTATCA | 0.0299
103 | CTTATGAA | -0.00538
104 | TACAGTAA | 0.0863
105 | GTTCGAAA | 0.12
106 | AAGTTTTA | 0.0896
107 | ATAGGTTC | 0.0982
108 | AAGCAATC | -0.00105
109 | AAAGTAGC | -0.109
110 | ACTCTGTA | -0.00546
111 | ATGACGGG | -0.153
112 | ATTACATG | 0.00974
113 | CATGGAAG | -0.176
114 | GAAATCGA | -9e-05
115 | CCCTTCGA | -0.276
116 | GAGGTTGC | -0.073
117 | AGAACTCC | 0.0252
118 | GTGGGGTA | 0.045
119 | ACTCGTTG | 0.198
120 | TGTTCGAA | 0.132
121 | AACATGAA | 0.0331
122 | CTCGTTTC | 0.452
123 | CGAGGCAC | 0.0661
124 | CCGTAATA | 0.253
125 | CGAGAGAA | 0.113

Row | Sequence | PBM E-score
126 | GGAATTAC | 0.175
127 | CGCTCTCA | 0.00166
128 | AATAGGAT | 0.0842
129 | TACGTTGA | 0.249
130 | AGAATCCT | -0.302
131 | TAGTGTCA | 0.04
132 | AGCTTCAA | -0.0931
133 | TCCCGGAA | -0.0742
134 | AAGACAGC | -0.222
135 | ATTTTAAC | 0.216
136 | ATTCACCC | -0.25
137 | CCCCCTAC | -0.265
138 | CCAATGAA | -0.198
139 | CGTGTATC | 0.152
140 | ACCACTGA | 0.0535
141 | ATATAGTC | 0.0853
142 | GGAGTACC | -0.202
143 | ATGAAATC | -0.0105
144 | ACACCCGA | 0.115
145 | GCTGAACC | 0.0322
146 | AAGATTCC | -0.0153
147 | AGTATATG | 0.0175
148 | CATTGACA | -0.295
149 | CCCTCGTA | 0.465
150 | CGCCCGGC | -0.154

Row | Sequence | PBM E-score
151 | AGGGCGTG | -0.0584
152 | GGAACCGA | 0.237
153 | ATGACCAT | 0.0665
154 | CACGAAGG | 0.00451
155 | CTGCATGA | -0.228
156 | AACGACGT | 0.408
157 | CCAACGCG | -0.0142
158 | AACGCCAT | -0.173
159 | GCAAACGA | 0.462
160 | ACGCGAGA | 0.216
161 | CTATCTTC | -0.00165
162 | GAGCAAAC | 0.149
163 | GAAGCGGA | -0.0922
164 | AGGACTAT | -0.349
165 | CCCGGCGA | -0.0917
166 | CCCCTAAC | -0.0466
167 | CATCACAG | -0.183
168 | GGATCAAA | -0.0796
169 | AAAGACGA | 0.0622
170 | GGATCGCC | -0.0204
171 | GACAGGTA | -0.0135
172 | AGGGAGAG | -0.177
